# In PubChem BioAssay AID1768 (National Center for Advancing Translational Sciences (NCATS), 2009):
# The campaign covered roughly 270,000 compounds. About 620 (0.23%) were called active. The inconclusive results got no clear call from the source; some entries with a clear call stand among them for comparison. The call rests on the fitted dose curve; in most records, active means well fitted inhibition curve with a large enough effect in the polarisation, with a control signal flat (not every such curve was filed as active); inconclusive means small, poorly fitted or top-dose-only effect, or effect the other way, or a change in a side signal; inactive means no such curve, though single readings can be large or run the other way; the % refers to the polarisation. Potencies of inconclusive entries are doubtful fits and often do not repeat. A note “side channel” means that the fit belongs to a control or component signal, not to the main read-out.
# Molecular target: Menin (Homo sapiens) (UniProt O00255)
# Assay: qHTS Assay for Inhibitors Targeting the Menin-MLL Interaction in MLL Related Leukemias: Competition With Texas Red Labeled MLL-derived Mutant Peptide; on FP activity change, negative = inhibition: % of control where 0% means no effect
# Conditions: fluorescence polarization; FP activity change, negative = inhibition: at 61.6 µM (top of the series)
# Potency means the concentration at half of the fitted maximal effect; tags describe the fitted curve by direction and shape or compound fluorescence and quenching.
# Chain of UniProt O00255 (O00255 whole entry, looked up): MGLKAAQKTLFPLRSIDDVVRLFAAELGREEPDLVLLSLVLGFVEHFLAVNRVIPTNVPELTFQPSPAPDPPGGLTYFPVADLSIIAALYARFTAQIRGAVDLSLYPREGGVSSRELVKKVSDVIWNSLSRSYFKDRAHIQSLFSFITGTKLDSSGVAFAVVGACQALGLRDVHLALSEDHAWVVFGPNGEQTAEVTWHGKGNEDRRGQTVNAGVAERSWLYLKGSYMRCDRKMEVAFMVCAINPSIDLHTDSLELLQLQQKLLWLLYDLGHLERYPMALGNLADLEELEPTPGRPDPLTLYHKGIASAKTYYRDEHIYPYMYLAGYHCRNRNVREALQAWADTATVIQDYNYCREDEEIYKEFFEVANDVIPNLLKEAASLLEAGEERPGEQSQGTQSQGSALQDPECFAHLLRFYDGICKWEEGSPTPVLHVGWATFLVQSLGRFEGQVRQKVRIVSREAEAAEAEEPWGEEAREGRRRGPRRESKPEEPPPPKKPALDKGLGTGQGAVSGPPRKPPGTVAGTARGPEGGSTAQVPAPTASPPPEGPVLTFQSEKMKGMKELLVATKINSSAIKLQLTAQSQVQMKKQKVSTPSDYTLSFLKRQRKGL
Structure (SMILES),Potency,"FP activity change, negative = inhibition"
O=C(c1ccc2ccccc2n1)N1CCN(Cc2c(F)cccc2Cl)CC1,"inconclusive: 31.6 µM [fluorescent, side channel, single point]",–
COc1ccc(NC(=O)C(NC(=O)Cc2cccs2)c2ccccc2)cc1 (configuration not stated),"inconclusive: 17.8 µM [inhibitor, single point]",–
COc1ccc(Br)cc1C1Nc2cccc3cccc(c23)N1,"inconclusive: 11.2 µM [quencher, side channel, partial curve]",–
Cc1ccc(OCC(=O)NC(=S)Nc2cccc(NC(=O)c3ccc(Cl)cc3Cl)c2)cc1,"inconclusive: 39.8 µM [inhibitor, single point]",–
Clc1ccc([C@H](Cn2ccnc2)OCc2c(Cl)cccc2Cl)c(Cl)c1,"inconclusive: 2.24 µM [fluorescent, side channel, full curve, poor fit]",–
CCc1ccc(NC(=O)CSc2nc3ccccc3c(=O)n2CCCC(=O)N2CCCC2)cc1,"inconclusive: 12.6 µM [fluorescent, side channel, partial curve]",–
O=C(CSc1ccccn1)Nc1nc2ccc(Br)cc2s1,"inconclusive: 31.6 µM [quencher, side channel, single point]",–
Cc1cc(=O)oc2cc(OC(=O)CCN3C(=O)c4ccccc4C3=O)ccc12,"inconclusive: 1 µM [inhibitor, full curve]",–
CCOc1ccccc1NC(=O)c1nnn(-c2ccc3c(c2)OCCO3)c1N,"inconclusive: 11.2 µM [quencher, side channel, partial curve]",–
CCN(CCCc1ccccc1)CCCc1ccccc1,"inconclusive: 22.4 µM [inhibitor, partial curve]",–
COc1cc(O)oc1C=Nc1ccc(Cl)cc1,–,inactive: 5.73%
COc1ccc(C(=O)Oc2ccc(/C=N/Nc3ccc(Cl)c(C(=O)O)c3)cc2OC)cc1,"inconclusive: 10 µM [quencher, single point]",–
COc1cc(OC)c(-c2nn3c(-c4ccco4)nnc3s2)cc1OC,"inconclusive: 10 µM [inhibitor, partial curve]",–
COc1ccc(Nc2nc(-c3cccs3)nc3ccccc23)c(OC)c1,"inconclusive: 10 µM [quencher, side channel, partial curve]",–
Cn1nc([N+](=O)[O-])nc1Oc1ccccc1N,"inconclusive: 22.4 µM [quencher, side channel, single point]",–
CC(C)Cc1nnc(NC(=O)C23CC4CC(CC(C4)C2)C3)s1,"inconclusive: 12.6 µM [fluorescent, side channel, partial curve]",–
CCN1CCN(C(=O)C2CCCN(S(=O)(=O)c3ccc(OC)c(OC)c3)C2)CC1 (configuration not stated),"inconclusive: 8.91 µM [quencher, side channel, full curve, poor fit]",–
O=C1C2C(c3ccccc3)=NN(c3ccccc3)C2C(=O)N1c1ccccc1 (configuration not stated),"inconclusive: 31.6 µM [inhibitor, single point]",–
CC(=O)Nc1ccc(O)c(-c2nc3ccccc3s2)c1,"inconclusive: 28.2 µM [quencher, side channel, partial curve]",–

Structure (SMILES),Potency,"FP activity change, negative = inhibition"
Cc1ccc(C)c(NC(=O)Cn2c(=O)n(-c3ccc(CC(=O)NCC4CCCO4)cc3)c(=O)c3ccccc32)c1 (configuration not stated),"inconclusive: 39.8 µM [fluorescent, side channel, single point]",–
CCCCNC(=O)CSc1nc2c(sc(=S)n2-c2cc(Cl)ccc2OC)c(=O)[nH]1,"inconclusive: 28.2 µM [quencher, side channel, single point]",–
O=C1OCC(CO)(CO)N=C1NNc1ccc(Cl)c(Cl)c1,–,inactive: 16.2%
CCOC(=O)c1cc(-c2cccs2)nc2c1c(C)nn2-c1ccccn1,"inconclusive: 3.16 µM [fluorescent, side channel, full curve, poor fit]",–
O=C(c1ccc(Cl)c([N+](=O)[O-])c1)N(Cc1ccccc1)C1CCS(=O)(=O)C1 (configuration not stated),–,inactive: -0.843%
CC1=CC(C)C(C(=O)O)C(C(=O)N2CCN(C)CC2)C1 (configuration not stated),–,inactive: 2.34%
O=C(O)c1ccccc1-c1nc2ccccc2c(=O)[nH]1,–,inactive: 3.76%
Cc1cc2c(c(=O)n1CCN(C)C)C(c1ccncc1)C(C#N)=C(N)O2 (configuration not stated),–,inactive: 24.8%
N#Cc1ccc(-c2ccco2)nc1SCC(=O)c1ccc(Cl)cc1,"inconclusive: 12.6 µM [quencher, side channel, partial curve]",–
COc1cc(-c2nc3ccc4ccccc4c3c3c2CCC3)cc(OC)c1O,–,inactive: 7.04%
Cc1ccc(S(=O)(=O)N2CC(O)CC2C(=O)O)cc1 (configuration not stated),–,inactive: -0.937%
CCOc1ccccc1Nc1nc(-c2sc(NC(=O)c3cccc(Cl)c3)nc2C)cs1,"inconclusive: 10 µM [quencher, side channel, partial curve]",–
COc1ccc(-c2cn(-c3ccc(C)c(Cl)c3)c(=S)[nH]2)cc1OC,"inconclusive: 22.4 µM [quencher, side channel, single point]",–
COc1ccc(NC(=O)Nc2cccc([N+](=O)[O-])c2)cc1Cl,"inconclusive: 12.6 µM [quencher, side channel, partial curve]",–
O=C1C2C3C=CC(C3)C2C(=O)N1CCc1ccccc1 (configuration not stated),"inconclusive: 39.8 µM [quencher, side channel, single point]",–
CC(C)COc1ccc(-c2nn(-c3ccccc3)cc2/C=C2/SC(=S)N(CC(=O)O)C2=O)cc1,"inconclusive: 22.4 µM [quencher, side channel, partial curve]",–
N#Cc1c(N2CCN(C(=O)c3ccccc3Cl)CC2)nc(-c2ccccc2)c2c1CCCC2,–,inactive: -11.9%
Cc1[nH][nH]c(=O)c1C(c1c(C)[nH][nH]c1=O)c1cn(C)c2ccccc12,"inconclusive: 11.2 µM [quencher, side channel, partial curve]",–
CCc1c(C)c2cc(Cl)c(O)c(CN(CC)CC)c2oc1=O,"inconclusive: 0.631 µM [inhibitor, partial curve, poor fit]",–

Structure (SMILES),Potency,"FP activity change, negative = inhibition"
CC(C)COc1ccc(-c2nn(-c3ccccc3)cc2C(=O)Nc2nccs2)cc1,"inconclusive: 2.51 µM [quencher, side channel, full curve, poor fit]",–
Cc1ccc(-n2ncc(C(=O)Nc3cc(Cl)cc(Cl)c3)c2C2CCNCC2)cc1C,"inconclusive: 8.91 µM [fluorescent, side channel, full curve]",–
Cc1c(C(=O)Nc2ccc(OCc3ccccc3)cc2)cccc1[N+](=O)[O-],"inconclusive: 28.2 µM [fluorescent, side channel, single point]",–
CN(C)c1ccc(/C=C2/SC(=O)N(CCN=C3NS(=O)(=O)c4ccccc43)C2=O)cc1,"inconclusive: 2.51 µM [quencher, side channel, full curve, poor fit]",–
O=C(c1ccc(Cl)c(S(=O)(=O)N2CCCC2)c1)N1CCN(c2ccccc2)CC1,"inconclusive: 10 µM [inhibitor, partial curve]",–
Nc1ccc2nc(-c3ccc(-c4nc5ccc(N)cc5[nH]4)cc3)[nH]c2c1,"inconclusive: 12.6 µM [quencher, side channel, partial curve]",–
CC1=C(C(=O)Nc2ccc(Cl)cc2)C(c2cccs2)n2nnnc2N1 (configuration not stated),"inconclusive: 39.8 µM [quencher, side channel, single point]",–
COc1cc(/C=N/Nc2ccccn2)cc(OC)c1O,"inconclusive: 39.8 µM [quencher, side channel, single point]",–
COc1ccc(NC(=O)Cc2nnc(SCC(=O)Nc3nccs3)n2C)cc1,"inconclusive: 39.8 µM [inhibitor, single point]",–
CC[C@]1(O)C[C@@H]2CN(CCc3c([nH]c4ccccc34)[C@@](C(=O)OC)(c3cc4c(cc3OC)N(C)[C@H]3[C@@](O)(C(=O)OC)[C@H](OC(C)=O)[C@]5(CC)C=CCN6CC[C@]43[C@@H]65)C2)C1,"inconclusive: 12.6 µM [fluorescent, side channel, partial curve]",–
COc1ccc(-c2nnc(NC(=O)c3ccc([N+](=O)[O-])o3)o2)c(OC)c1,"inconclusive: 31.6 µM [quencher, side channel, single point]",–
O=C(/C=C/c1ccc([N+](=O)[O-])cc1)Nc1ncc([N+](=O)[O-])s1,"inconclusive: 20 µM [quencher, side channel, partial curve]",–
N#Cc1cc(N)ccc1Sc1ccc(Cl)cc1,"inconclusive: 28.2 µM [quencher, side channel, single point]",–
CCCC(=O)Nc1ccc2nc(SCC(=O)Nc3nccs3)sc2c1,"inconclusive: 22.4 µM [inhibitor, single point]",–
O=C(Nc1nc(-c2ccccc2)ns1)c1cccs1,"inconclusive: 11.2 µM [quencher, side channel, partial curve]",–
Cc1cnc(C(=O)Nc2ccc(C)c(S(=O)(=O)N(C)C)c2)cn1,–,inactive: 0.666%
COC(=O)c1ccc(C(=O)OC)c(NC(=O)CN2CCCCC2)c1,"inconclusive: 22.4 µM [fluorescent, side channel, partial curve]",–
COc1ccc(NC(=O)c2cc(-c3cccs3)on2)c(OC)c1,"inconclusive: 20 µM [fluorescent, side channel, single point]",–
CC(C)CNS(=O)(=O)c1ccc(C(=O)Nc2ccc3c(c2)OCO3)cc1,"inconclusive: 35.5 µM [fluorescent, side channel, single point]",–
